The values below come from the supplement of paper PMC12645437, “Orthogonal IMiD-Degron Pairs Induce Selective Protein Degradation in Cells” (ACS Chemical Biology, 2025).

This is one part of the list.
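Further: jurkat cells carrying a lentiviral library of mutant zinc finger degrons fused to EGFP plus mCherry, mCherry+ cells FACS sorted, degron abundance counted by next-generation sequencing.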

In this experiment the target is no compound (DMSO). The experiment can be described thus: log2 fold change of degron read counts, EGFP-low vs EGFP+ sorted cells; higher = lower degron-EGFP level without compound (poor expression or instability). To be noted: compound: DMSO control; 18 h.
For FWCPVCGAFFTQKGNLLRHIKL, the “log2 fold change of degron read counts” value was determined as 2.
In the case of LMCPICGFQCTQKGNLLRHIKL, the “log2 fold change of degron read counts” value turned out to be 0.146.
As to FDCDQCGACFTQKGNLLRHIKL, the “log2 fold change of degron read counts” value is -0.794.
For the sequence FACNQCGHEFTQKGNLLRHIKL, the “log2 fold change of degron read counts” value was -1.15.
As for FYCEVCGAYFTQKGNLLRHIKL, the “log2 fold change of degron read counts” value was -1.25.
For FSCEVCGAEFTQKGNLLRHIKL, the “log2 fold change of degron read counts” value was -3.18.
Turning to FQCEICGRKFTQKGNLLRHIKL, the “log2 fold change of degron read counts” value was -0.647.
Next, FGCNQCGARFTQKGNLLRHIKL: -0.308; FVCEICGHPFTQKGNLLRHIKL: -1.58.
Regarding LNCEICGFNCTQKGNLLRHIKL, the “log2 fold change of degron read counts” value was -0.29.
As to FLCEICGALFTQKGNLLRHIKL, the “log2 fold change of degron read counts” value is -0.526.
Turning to FRCDVCGADFTQKGNLLRHIKL, the “log2 fold change of degron read counts” value was -2.19.
On to FGCEQCGALFTQKGNLLRHIKL, for which the “log2 fold change of degron read counts” value is -0.737.
Regarding LMCNQCGFLCTQKGNLLRHIKL, the “log2 fold change of degron read counts” value was 1.54.
FACDICGAMFTQKGNLLRHIKL: the “log2 fold change of degron read counts” value is -0.102.
LTCEICGFDCTQKGNLLRHIKL: the “log2 fold change of degron read counts” value was -0.593.
In the case of FLCEICGHWFTQKGNLLRHIKL, the “log2 fold change of degron read counts” value is -0.14.
For FWCEVCGAVFTQKGNLLRHIKL, the “log2 fold change of degron read counts” value was -0.432.
FECNQCGAKFTQKGNLLRHIKL: the “log2 fold change of degron read counts” value is -1.18.
Next, FFCEICGRGFTQKGNLLRHIKL: -1.69.
For the sequence FRCPQCGAHFTQKGNLLRHIKL, the “log2 fold change of degron read counts” value was -0.0611.
Next, FKCNVCGAMFTQKGNLLRHIKL: -1.08; LHCPICGFMCTQKGNLLRHIKL: 0.894.
As to FCCDQCGAFFTQKGNLLRHIKL, the “log2 fold change of degron read counts” value is -0.577.
Next, FWCEICGRRFTQKGNLLRHIKL: -0.556.
On to FYCPICGAQFTQKGNLLRHIKL, for which the “log2 fold change of degron read counts” value came out at 0.0761.
For the sequence FQCNQCGHAFTQKGNLLRHIKL, the “log2 fold change of degron read counts” value is -1.33.
Next, FRCEICGHRFTQKGNLLRHIKL: -0.865.
Take FECPICGRTFTQKGNLLRHIKL: the “log2 fold change of degron read counts” value was -0.0208.
For the sequence FRCEICGRRFTQKGNLLRHIKL, the “log2 fold change of degron read counts” value was -0.727.
For FDCNQCGRNFTQKGNLLRHIKL, the “log2 fold change of degron read counts” value is 0.477.
Next, FDCNQCGRWFTQKGNLLRHIKL: 1.89; FSCDICGALFTQKGNLLRHIKL: -1.6.
FACEICGHIFTQKGNLLRHIKL: the “log2 fold change of degron read counts” value was -0.644.
FMCEICGHEFTQKGNLLRHIKL: the “log2 fold change of degron read counts” value was -2.53.
Regarding FTCNVCGADFTQKGNLLRHIKL, the “log2 fold change of degron read counts” value is -1.12.
Next, LKCPICGFFCTQKGNLLRHIKL: 1.38; FGCEVCGAWFTQKGNLLRHIKL: -0.242; FCCEVCGAIFTQKGNLLRHIKL: -0.723.
For FECPICGRPFTQKGNLLRHIKL, the “log2 fold change of degron read counts” value was -0.589.
Consider FNCEICGHTFTQKGNLLRHIKL, for which the “log2 fold change of degron read counts” value was -2.82.
Next, FECPICGHNFTQKGNLLRHIKL: -0.87; FVCPICGHFFTQKGNLLRHIKL: 0.26.
As for FRCEQCGAAFTQKGNLLRHIKL, the “log2 fold change of degron read counts” value was -2.38.
FCCEICGHMFTQKGNLLRHIKL: the “log2 fold change of degron read counts” value was -0.854.
FRCPQCGARFTQKGNLLRHIKL: the “log2 fold change of degron read counts” value was -0.236.
With FKCPICGRCFTQKGNLLRHIKL, the “log2 fold change of degron read counts” value was -0.178.
As for FDCPICGHFFTQKGNLLRHIKL, the “log2 fold change of degron read counts” value amounted to 0.173.
Regarding FECDQCGAEFTQKGNLLRHIKL, the “log2 fold change of degron read counts” value was -0.984.
On to FMCNQCGHGFTQKGNLLRHIKL, for which the “log2 fold change of degron read counts” value was -0.61.
